“And” between values parts separate entries of the source, which are not always exact repeats. Equal entries are not always repeated. The whole screen tested about 420,000 compounds, of which about 50,000 (12%) were called active. The shares of active, inactive and inconclusive entries below differ from those in the screen. Calls follow the shape of the dose curve; as a rule, active = well fitted inhibition curve with a large enough effect; inconclusive = small, poorly fitted or top-dose-only effect; inactive = flat fitted curve, though single readings scatter. Potencies beside an inconclusive call are fits to weak or partial responses and may not hold up.
test: qHTS for Inhibitors of human tyrosyl-DNA phosphodiesterase 1 (TDP1): qHTS in cells in presence of CPT; details: chicken DT40 Tdp1-/-;hTDP1 cells + 20 nM CPT, ATP luminescence, 48 h; activity change, negative = growth inhibition: at 46.2 µM (top of the series); also: nearly all actives have a fitted effect of over 55% in size
In short: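 Cell growth measured by CellTiter-Glo luminescence after a minimum 48 h, 37 C compound exposure with 20 nM CPT in Tdp1-knockout DT40 cells stably expressing hTDP1, seeded 400/well; qHTS titration format.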
% is scaled to controls: 0 for no effect and ±100 for the full control effect; potency is read from the fitted curve at half-maximal effect; tags tell the direction and shape of the fitted curve.

| Structure (SMILES) | Potency | activity change, negative = growth inhibition |
| --- | --- | --- |
| COc1ccc(OCC(=O)OCC(=O)Nc2ccc(S(=O)(=O)N3CCCCC3)cc2)cc1 | inconclusive: 23.1 µM [inhibitor, single point] | – |
| CCCCc1ccc(NC(=O)NCc2cccnc2)cc1 | inactive | – |
| Cc1cccc(SC2CCN(C(=O)C3CCC(=O)N(C4CC4)C3)CC2)c1 (configuration not stated) | inactive | – |
| CCN(CC)CCCN(Cc1cc2cc3c(cc2[nH]c1=O)OCO3)C(=S)Nc1ccccc1 | inconclusive: 23.1 µM [inhibitor, single point] | – |
| COc1cc(/C=N/NC(=O)c2nnn(-c3nonc3N)c2C(C)C)ccc1OCc1ccccc1 | inconclusive: 25.9 µM [inhibitor, single point] | – |
| CC(C)NCC(O)COC1CCC(C(C)(C)C)CC1 (configuration not stated) | inconclusive: 13 µM [inhibitor, single point] | – |
| Cc1ccc(N2CCN(C(=S)c3ccc(N(C)C)cc3)CC2)cc1 | inconclusive: 29.1 µM [inhibitor, single point] | – |
| CC(=O)c1cccc(NC(=O)c2cc(=O)[nH]c3ccccc23)c1 | inactive | – |
| Cc1ccc(S(=O)(=O)c2nc(-c3cccs3)oc2SCC(N)=O)cc1 | inactive | – |
| CCOC(=O)C(=Cc1ccc(-n2cncn2)cc1)C(=O)OCC | active: 11.6 µM | – |
| CC(=O)Nc1cccc(NC(=O)c2cc(-c3cccnc3)nc3ccc(Cl)cc23)c1 | inconclusive: 25.9 µM [inhibitor, single point] | – |
| COc1cccc(NC(=O)CN(C)C(=O)c2cc(-c3cccc(Br)c3)nc3ccccc23)c1 | inconclusive: 29.1 µM [inhibitor, single point] | – |
| Cc1c(-c2cc(Br)ccc2O)nc2cc3c(cc2c1C)OCO3 | inconclusive: 29.1 µM [inhibitor, single point] | – |
| O=C(Oc1ccc(OC(=O)C2CCC2)cc1)C1CCC1 | inconclusive: 16.4 µM [inhibitor, partial curve, poor fit] | – |
| O=C(NC(C(=O)c1ccccc1)N1CCCCC1)c1ccccc1 (configuration not stated) | inactive | – |
| COCCNC(=O)CN1N=C(c2ccc(C)cc2)CCC1=O | inactive | – |
| COCCn1c(CN2CCN(c3ccc(OC)cc3)CC2)nc2c1c(=O)n(C)c(=O)n2C | inconclusive: 5.17 µM [inhibitor, partial curve] | – |
| CCOc1ccc(/C=N/NC(=O)c2cc3c(OC)cccc3[nH]2)cc1 | active: 18.4 µM | – |
| COc1ccc(S(=O)(=O)Nc2cc3c(cc2NCc2ccccc2)n(C)c(=O)n3C)cc1OC | inconclusive: 29.1 µM [inhibitor, single point] | – |
| O=C(Nc1ccc(CN2CCS(=O)(=O)CC2)cc1)c1ccc(C(F)(F)F)cc1 | inconclusive: 25.9 µM [inhibitor, single point] | – |
| Cn1cc(-c2nnc(-c3ccccc3)o2)c2ccccc21 | inactive | – |
| O=C(Nc1ccc2c(c1)CCC2)c1ccc(Br)s1 | inconclusive: 0.461 µM [inhibitor, full curve, poor fit] | – |
| COc1ccc(/C(C)=N/OCC(=O)Nc2nc3ccccc3s2)cc1OC | inconclusive: 29.1 µM [inhibitor, single point] | – |
| CCOc1ccc(CCNC(=O)COC(=O)CCc2cc(OC)c(OC)c(OC)c2)cc1OCC | inactive | – |

| Structure (SMILES) | Potency | activity change, negative = growth inhibition |
| --- | --- | --- |
| COc1ccccc1NS(=O)(=O)c1ccc(O)c(C(=O)OCC(=O)N2CCc3ccccc32)c1 | inactive | – |
| Cn1ncc(Br)c1NC(=O)c1ccco1 | inactive | – |
| COc1cccc(-n2cc(C(=O)NCc3cccc(Cl)c3)c3ccccc3c2=O)c1 | inconclusive: 16.4 µM [inhibitor, single point] | – |
| CC(C)(C)c1ccc(C(=O)NCC(=O)OCN2C(=O)c3ccccc3C2=O)cc1 | – | inconclusive: -32% [inhibitor] |
| CC1(c2ccccc2)NC(=O)N(CC(=O)NCCN2C(=O)S/C(=C\c3cccnc3)C2=O)C1=O (configuration not stated) | inactive | – |
| C=CCN(CC=C)C(=O)CN1C(=O)NC(c2ccccc2)(c2ccccc2)C1=O | inconclusive: 18.4 µM [inhibitor, partial curve] | – |
| Cc1ccc(N2CCN(CC(O)COc3cccc(C)c3)CC2)cc1 (configuration not stated) | active: 23.1 µM | – |
| CCOc1ccc(CNC2CCCc3ccccc32)cc1 (configuration not stated) | inconclusive: 29.1 µM [inhibitor, single point] | – |
| CCOc1ccc(NC(=O)c2ccc(-c3ccccc3)s2)cc1 | inactive | – |
| COc1ccc(NC(=O)CN(C)C(=O)c2cccc(S(=O)(=O)N3CCN(Cc4ccccc4)CC3)c2)cc1 | active: 18.4 µM | – |
| Cc1ccc(C)c(S(=O)(=O)Nc2cccc(-n3cnnn3)c2)c1 | inactive | – |
| COc1ccccc1C1=NNC(=Nc2cccc(S(=O)(=O)N(C)C)c2)SC1 | inconclusive: 18.4 µM [inhibitor, single point] | – |
| CC(=O)c1ccc(OCC(O)CN2CCN(CC(O)COc3ccc(C(C)=O)cc3)CC2)cc1 (configuration not stated) | inactive | – |
| Cc1cccc(OC(C)C(=O)Nc2nc(-c3ccncc3)cs2)c1 (configuration not stated) | inconclusive: 20.6 µM [inhibitor, single point] | – |
| COc1ccc(CNC(=O)CCC(=O)Nc2ccc(Cl)cc2)cc1 | inactive | – |
| Cc1ccc(S(=O)(=O)N(C)C)cc1NC(=S)N1CCCCC1CO (configuration not stated) | inconclusive: 14.6 µM [inhibitor, partial curve] | – |
| CN1CCN(c2ccc(Cl)cc2NC(=O)c2cc(=O)[nH]c3ccccc23)CC1 | inconclusive: 20.6 µM [inhibitor, single point] | – |
| CCOc1ccc(NC(=O)C2CCCN(S(=O)(=O)c3cccc4nsnc34)C2)cc1 (configuration not stated) | active: 23.1 µM | – |
| CN(C)C(=O)c1ccc(-c2nc(N(C)C)c3ccccc3n2)cc1 | inconclusive: 16.4 µM [inhibitor, single point] | – |
| Cc1nc(SCC(=O)c2cc3ccccc3oc2=O)c(C#N)c(-c2ccccc2)c1C(=O)Nc1ccccc1 | inconclusive: 23.1 µM [inhibitor, single point] | – |
| COc1cc2c(cc1OC)CN(Cc1ccc(OC)c(C)c1OC)CC2 | active: 29.1 µM | – |
| COc1ccc(CCNS(=O)(=O)c2ccc3oc(C(=O)O)c(C)c3c2)cc1OC | inactive | – |
| COc1ccc(N2C(=O)C(OC(C)=O)C2c2ccc(C)cc2)cc1 (configuration not stated) | inactive | – |
| Cc1ccc(S(=O)(=O)N2CCN(C(=O)c3ccc(N4CCCCC4)c([N+](=O)[O-])c3)CC2)cc1 | inconclusive: 25.9 µM [inhibitor, single point] | – |

| Structure (SMILES) | Potency | activity change, negative = growth inhibition |
| --- | --- | --- |
| CSc1ccc(C(=O)C2CCCN(C(=O)c3ccc4c(c3)no[n+]4[O-])C2)cc1 (configuration not stated) | inconclusive: 29.1 µM [inhibitor, single point] | – |
| COc1cc(C(=O)N2CCN(c3ccccc3)CC2)c2ccccc2n1 | active: 0.92 µM | – |
| Cc1cc(Cl)ccc1OCc1nc(-c2ccncc2)no1 | inactive | – |
| COc1ccc(-c2csc(NC(=O)c3nc(-c4ccccc4)oc3C)n2)cc1 | inactive | – |
| Cc1ccc(-n2nnnc2SCC(=O)NCC2(N3CCOCC3)CCCCC2)cc1 | inconclusive: 29.1 µM [inhibitor, single point] | – |
| CCCNC(=O)c1cc(-c2ccco2)on1 | active: 9.2 µM | – |
| CCOC(=O)CNS(=O)(=O)c1cc(-c2nnc(Nc3ccc4c(c3)OCO4)c3ccccc23)ccc1C | inconclusive: 25.9 µM [inhibitor, single point] | – |
| COc1cc(OC)cc(-n2nnc(-c3nc(-c4ccccc4Cl)no3)c2N)c1 | inconclusive: 29.1 µM [inhibitor, single point] | – |
| Clc1ccc2c(N/N=C/c3cccnc3)ccnc2c1 | inconclusive: 29.1 µM [inhibitor, single point] | – |
| O=C(CNC(=O)c1ccco1)NNC(=O)c1ccc(Br)cc1 | inconclusive: 5.17 µM [inhibitor, single point] | – |
| Cc1cc(Cl)ccc1C(=O)C1CCCN(C(=O)CCn2cncn2)C1 (configuration not stated) | inconclusive: 9.2 µM [inhibitor, partial curve, poor fit] | – |
| CC(=O)Nc1ccc(S(=O)(=O)N2CCC(Oc3ccc(-n4cnnn4)cc3)CC2)cc1 | inconclusive: 18.4 µM [inhibitor, single point] and inconclusive: 20.6 µM [inhibitor, single point] | – |
| O=S1(=O)CCO[C@H]2CCCC[C@@H]2N1Cc1ccccc1 | inconclusive: 22.4 µM [inhibitor, single point] | – |
| Cc1cc(NC(=O)c2sc(Nc3ccc(F)cc3)nc2N)no1 | inconclusive: 29.1 µM [inhibitor, single point] | – |
| CC(=O)Oc1ccccc1-c1nc(C)nc(N(C)C(C)=O)n1 | inactive | – |
| Cc1ccc2c(c1)NC(c1cccs1)C1=C(CC(C)(C)CC1=O)N2 (configuration not stated) | inactive | – |
| Cc1cc2ncc(C(N)=O)cn2n1 | inactive | – |
| COCCCNC(=O)c1sc2nc(C)c(C(=O)Nc3ccc(C)cc3C)c(-c3ccc(Cl)cc3)c2c1N | inconclusive: 25.9 µM [inhibitor, single point] | – |
| COC(=O)c1cc2c(ccn2-c2ccc(F)cc2)n1Cc1cccc(OC)c1 | active: 7.31 µM | – |
| COc1ccc(NC(=O)c2c(-c3ccccc3)c(-c3ccccc3)nn(C)c2=O)c(OC)c1 | active: 16.4 µM | – |
| CCOC(=O)c1cnc(SCC(=O)Nc2ccccc2C(=O)OC)nc1N | active: 16.4 µM | – |
| Cc1ccc(-c2nc3cc(Cl)ccc3o2)cc1NC(=O)COc1ccccc1C | active: 8.91 µM | – |
| CC(=O)N1c2ccccc2C(=O)C1N1CCN(c2ccccc2)CC1 (configuration not stated) | inconclusive: 32.6 µM [inhibitor, single point] | – |
| CC(C)C[C@@H](CNCC(=O)[C@H](Cc1c[nH]c2ccccc12)NC(=O)c1[nH]cnc1C(=O)N[C@@H](C)CN)NC(=O)c1nc[nH]c1C(=O)N[C@@H](Cc1ccccc1)C(=O)O | inactive | – |

From PubChem BioAssay AID686979 (National Center for Advancing Translational Sciences (NCATS), 2013)
